Data published in paper PMC8620910, “Design and Synthesis of (2-oxo-1,2-Dihydroquinolin-4-yl)-1,2,3-triazole Derivatives via Click Reaction: Potential Apoptotic Antiproliferative Agents” (Molecules, 2021).

Legend:
CCRF-CEM = conditions: read-out: IC50 against CCRF-CEM; ref [7],[8],[9]; cited from earlier work
MOLT = conditions: read-out: IC50 against MOLT; ref [7],[8],[9]; cited from earlier work
Caspase 9 = Caspase 9 level in MCF-7; format: cell-based, human; conditions: for Caspase 9 Conc: MCF-7; for Caspase 9 Fold Change: MCF-7, versus untreated control
Description: (§1) Compounds 8e and 8g were also tested for their effects on Caspases 8 and 9.

MCF-7 cancer cell line = assay: Flow cytometric cell cycle analysis; format: cell-based, human; conditions: for percentage of apoptotic cells in the Pre-G1: control 1.63%
[1] = system: A-549, MCF-7, Panc-1 and HT-29 cell lines; assay: Average anti-proliferative IC50 over the four cancer cell lines; format: cell-based; conditions: Homo sapiens; average of A-549, MCF-7, Panc-1, HT-29
Description: Tested 8a–l compounds were assessed for their anti-proliferative activity against four human cancer cell lines, including the pancreatic cancer cell line (Panc-1), breast cancer cell line (MCF-7), colon cancer cell line (HT-29), and epithelial cancer cell line (A-549) using propidium iodide fluorescence assay and the reference doxorubicin.
(§2) To explore the anti-proliferative potential of compounds, propidium iodide fluorescence assay was performed using different cell lines such as Panc-1 (pancreas cancer cell line), MCF-7 (breast cancer cell line), HT-29 (colon cancer cell line), and A-549 (epithelial cancer cell line), respectively. To calculate the total nuclear DNA, a fluorescent dye (propidium iodide, PI) is used to attach to the DNA, thus offering a quick and precise technique. PI cannot pass through the cell membrane, and its signal intensity can be considered as directly proportional to the quantity of cellular DNA. Cells whose cell membranes are damaged or have changed permeability are counted as dead ones. The assay was performed by seeding the cells of different cell lines at a density of 3000–7500 cells/well (in 200 μL medium) in culture plates followed by incubation for 24 h at 37 °C in humidified 5%CO2/95% air atmospheric conditions. The medium was removed; the compounds were added to the plates at 10 μM concentrations (in 0.1% DMSO) in triplicates, followed by incubation for 48h. DMSO (0.1%) was used as a control. After incubation, the medium was removed, followed by the addition of PI (25 μL, 50 μg/mL in water/medium) to each well of the plates. At −80 °C, the plates were allowed to freeze for 24 h, followed by thawing at 25 °C. A fluorometer (Polar-Star BMG Tech, Beijing, China) was used to record the readings at excitation and emission wavelengths of 530 and 620 nm for each well. The percentage cytotoxicity of compounds was calculated using the following formula: % Cytotoxicity=AC−ATC/AC×100 where ATC = absorbance of treated cells and AC = absorbance of control. Doxorubicin was used as a positive control in the assay.

Bcl-2 = Bcl-2 inhibition assay in MCF-7; conditions: for Bcl-2 Conc: MCF-7; for Bcl-2 Fold Reduction: MCF-7, versus untreated control
[2] = system: breast cancer cell line (MCF-7); assay: Anti-proliferative propidium iodide fluorescence assay, MCF-7; format: cell-based; conditions: Homo sapiens, MCF7; read-out: Anti-Proliferative Activity IC50 ± SEM, MCF-7
Description: (§3) Tested 8a–l compounds were assessed for their anti-proliferative activity against four human cancer cell lines, including the pancreatic cancer cell line (Panc-1), breast cancer cell line (MCF-7), colon cancer cell line (HT-29), and epithelial cancer cell line (A-549) using propidium iodide fluorescence assay and the reference doxorubicin. Results (IC50) are illustrated in Table 3.
as §2

active Caspase 8 = assay: Caspase 8 activation assay in MCF-7; format: cell-based, human; conditions: for Caspase 8 Fold Change: MCF-7, versus untreated control; for Caspase 8 Conc: MCF-7
Description: as §1
Cells were obtained from American Type Culture Collection; cells were grown in RPMI 1640 containing 10% fetal bovine serum at 37 °C, stimulated with the compounds to be tested for caspase8, and lysed with Cell Extraction Buffer. This lysate was diluted in Standard Diluent Buffer over the range of the assay and measured for human active Caspase 8 content. (cells were plated in a density of 1.2–1.8 × 10,000 cells/well in a volume of 100 µL complete growth medium + 100 µL of the tested compound per well in a 96-well plate for 24 h before the enzyme assay for Tubulin). […] A standard curve was prepared from seven human Caspase 8 standard dilutions, and human Caspase 8 concentration was determined.

Cytochrome C = Cytochrome C assay in MCF-7; format: cell-based, human; conditions: for Cytochrome C Fold Change: MCF-7, versus untreated control; for Cytochrome C Conc: MCF-7
Description: The amount of cytochrome C in a cell plays an important role in caspase activation and the initiation of the intrinsic apoptosis pathway. […] The findings add to the proof that apoptosis can be attributed to cytochrome C overexpression and activation of the intrinsic apoptotic pathway triggered by the tested compounds.
Cells were obtained from American Type Culture Collection, grown in RPMI 1640 containing 10% fetal bovine serum at 37 °C, stimulated with the compounds to be tested for cytochrome C, and lysed with Cell Extraction Buffer. This lysate was diluted in Standard Diluent Buffer over the range of the assay and measured for cytochrome C content. (cells were plated in cells/well in a volume of 100 µL complete growth medium + 100 µL of the tested compound + 50 µL of 1× biotin-conjugated antibody + 100 µL of 1× streptavidin-HRP + 100 µL TMB substrate soln of per well in a 96-well plate for 24 h before assay).

Bax = Bax activation assay in MCF-7; conditions: for Bax Conc: MCF-7; for Bax Fold Change: MCF-7, versus untreated control
active Caspase 3 = assay: Caspase 3 activation assay in MCF-7; conditions: for Caspase 3 Fold Change: MCF-7, versus untreated control
[3] = system: colon cancer cell line (HT-29); assay: Anti-proliferative propidium iodide fluorescence assay, HT-29; format: cell-based; conditions: Homo sapiens, read-out: Anti-Proliferative Activity IC50 ± SEM, HT-29
Description: as §3
(§4) To explore the anti-proliferative potential of compounds, propidium iodide fluorescence assay was performed using different cell lines such as Panc-1 (pancreas cancer cell line), MCF-7 (breast cancer cell line), HT-29 (colon cancer cell line), and A-549 (epithelial cancer cell line), respectively. […] PI cannot pass through the cell membrane, and its signal intensity can be considered as directly proportional to the quantity of cellular DNA. Cells whose cell membranes are damaged or have changed permeability are counted as dead ones. […] A fluorometer (Polar-Star BMG Tech, Beijing, China) was used to record the readings at excitation and emission wavelengths of 530 and 620 nm for each well. The percentage cytotoxicity of compounds was calculated using the following formula: % Cytotoxicity=AC−ATC/AC×100 where ATC = absorbance of treated cells and AC = absorbance of control. […]

[4] = Cell viability assay (MTT) on MCF-10A; format: cell-based; conditions: human, MCF-10A mammary epithelial cells, four days
Description: A human mammary gland epithelial cell line was used in the cell viability assay (MCF-10A). MCF-10A cells were incubated with compounds 8a–l for four days, and cell viability was determined using an MTT assay.
An MTT assay was performed to investigate the effect of the synthesized compounds on mammary epithelial cells (MCF-10A) at a concentration of 50 µM for the tested compound. The cells were propagated in a medium consisting of Ham’s F-12 medium/Dulbecco’s modified Eagle’s medium (DMEM) (1:1) supplemented with 10% fetal calf serum, 2 mM glutamine, insulin (10 μg/mL), hydrocortisone (500 ng/mL), and epidermal growth factor (20 ng/mL). Trypsin ethylenediamine tetra acetic acid (EDTA) was used to pass the cells every 2–3 days. Ninety-six-well flat-bottomed cell culture plates were used to seed the cells at a density of 10^4 cells mL^−1. The medium was aspirated from all the wells of culture plates after 24 h followed by the addition of synthesized compounds (in 200 μL medium to yield a final concentration of 0.1% (v/v) dimethylsulfoxide) into individual wells of the plates. Four wells were designated to a single compound. The plates were allowed to incubate at 37 °C for 96 h. […] The plates were vortexed, followed by the measurement of absorbance at 540 nm on a microplate reader. […]

[5] = system: epithelial cancer cell line (A-549); assay: Anti-proliferative propidium iodide fluorescence assay, A-549; format: cell-based; conditions: Homo sapiens, A549; read-out: Anti-Proliferative Activity IC50 ± SEM, A-549
Description: as §3, §4

[6] = system: pancreatic cancer cell line (Panc-1); assay: Anti-proliferative propidium iodide fluorescence assay, Panc-1; format: cell-based; conditions: Homo sapiens, read-out: Anti-Proliferative Activity IC50 ± SEM, Panc-1
Description: as §3, §4

MCF-7 cell line = assay: Cell apoptosis assay, annexin V-FITC/PI flow cytometry; format: cell-based, human; conditions: MCF-7, annexin V-FITC staining
Description: Apoptosis was determined by flow cytometry based on the annexin V-fluorescein isothiocyanate (FITC) and propidium iodide (PI) staining kit (BD Pharmingen, San Diego, USA). Apoptotic cells were defined as Annexin-V-positive. Cells were grown to approximately ~70% confluency and exposed to the tested compounds (8 μmol/L) for 24 h. Treated cells were trypsinized, washed twice with PBS, and transferred into microcentrifuge tubes for centrifugation at 1000 rpm for 5 min at room temperature, and then resuspended in binding buffer; 5 μL of FITC and PI were added to per Eppendorf tube, and cells were vortexed and incubated for 15 min at room temperature in the dark. Subsequently, cells were analyzed by flow cytometry (Becton Dickinson, Franklin Lakes, NJ, USA).

RPMI-8226 = system: RPMI-8226; parameters: method as in PMID 31212178, PMID 32062064, PMID 33137557; conditions: ref [7],[8],[9]; read-out: IC50 against RPMI-8226; cited from earlier work

Structure (SMILES)	Caspase 9 Conc (Caspase 9)	percentage of apoptotic cells in the Pre-G1 (MCF-7 cancer cell line)	IC50 [1]	Bcl-2 Conc (Bcl-2)	Bcl-2 Fold Reduction (Bcl-2)	IC50 [2]	Caspase 8 Fold Change (active Caspase 8)	Cytochrome C Fold Change (Cytochrome C)	Bax Conc (Bax)	Bax Fold Change (Bax)	Caspase 3 Fold Change (active Caspase 3)	IC50 [3]	viability at 96 h, 50 µM [4]	Caspase 9 Fold Change (Caspase 9)	IC50 [5]	IC50 [6]	Caspase 8 Conc (active Caspase 8)	Cytochrome C Conc (Cytochrome C)	other results
N#Cc1nn(-c2cc(=O)[nH]c3ccc(Br)cc23)c(N)c1C#N [III]																			IC50 (CCRF-CEM): 2420 ± 40 nM; IC50 (MOLT): 1350 ± 80 nM
COc1cccc2c1C(=O)c1c(O)c3c(c(O)c1C2=O)C[C@@](O)(C(=O)CO)C[C@@H]3O[C@H]1C[C@H](N)[C@H](O)[C@H](C)O1 [Doxorubicin, reference compound]	16.23 ng/mL	22.17%	1140 nM	0.983 ng/mL	5.17 fold	900 ± 620 nM	10.07 fold	13.13 fold	276.19 pg/mL	33.42 fold	7.66 fold								Bcl-2 Conc (Bcl-2; listed as doxorubicin): 0.98 ng/mL
COc1ccc2[nH]c(=O)cc(-n3cc(COc4ccc(C(c5c(O)c6cc(OC)ccc6[nH]c5=O)c5c(O)c6cc(OC)ccc6[nH]c5=O)cc4)nn3)c2c1 [Compound 8g, 3,3’-((4-((1-(6-Methoxy-2-oxo-1,2-dihydroquinolin-4-yl)-1H-1,2,3-triazol-4-yl)methoxy)phenyl)methylene)bis(4-hydroxy-6-methoxyquinolin-2(1H)-one)]	13.98 ng/mL	26.57%	1580 nM	1.085 ng/mL	4.68 fold	1200 ± 200 nM	8.94 fold	~12.76 fold	264.90 pg/mL	32 fold and 32.07 fold	7.45 fold	1800 ± 400 nM	84%	15.03 fold	1900 ± 200 nM	1400 ± 200 nM	1.52 ng/mL	0.587 ng/mL	percentage of cells in the G2/M phase (MCF-7 cancer cell line; control 4.38%): 36.6%; percentage of cells in the S phase (MCF-7 cancer cell line; control 42.01%): 27.15%; percentage of cells in the G0/G1 phase (MCF-7 cancer cell line; control 53.61%): 36.25%; pro-apoptotic activity (MCF-7 cell line): significant pro-apoptotic activity
COc1ccc2[nH]c(=O)c(C(c3ccc(OCc4cn(-c5cc(=O)[nH]c6ccccc56)nn4)cc3)c3c(O)c4cc(OC)ccc4[nH]c3=O)c(O)c2c1 [Compound 8e, 3,3’-((4-((1-(2-oxo-1,2-dihydroquinolin-4-yl)-1H-1,2,3-triazol-4-yl)methoxy)phenyl)-methylene)bis(4-hydroxy-6-methoxyquinolin-2(1H)-one)]	12.89 ng/mL		1880 nM	1.278 ng/mL	3.97 fold	1500 ± 700 nM	7.58 fold		247.65 pg/mL	30 fold and 29.98 fold	7.23 fold	2200 ± 400 nM	85%	13.86 fold	2100 ± 200 nM	1700 ± 100 nM	1.29 ng/mL	0.548 ng/mL	Caspase 3 Conc (active Caspase 3; MCF-7): 475.20 ± 4.27 pg/mL
O=c1cc(N/N=C/c2ccc(Cl)cc2)c2cc(Cl)ccc2[nH]1 [II]																			IC50 (RPMI-8226): 15700 ± 1210 nM

Where “and” joins values, the source holds several entries; their conditions need not be identical. Identical values can stand only once.
